From PMC9911399, “Two distinct binding modes provide the RNA-binding protein RbFox with extraordinary sequence specificity” come the findings set out here.

Substitutions are numbered along the chain they refer to; changes in the protein carry UniProt numbers. The list shows a part of the results.

B1: GCCUGCG (DNA:RNA)
RNA: GGGAGACCGGAAUUCAGAUUGUCCGCCUGCGUUAAAUCCCGUCGUAGCCACCA
DNA 1: CAATCTGAATTCCGGTCTCCC
DNA 2: TGGTGGCTACGACGGGATT
B2: AGCGCCU (DNA:RNA)
RNA: B1 RNA with G25A, C26G, U28G, G29C, G31U
DNA 1: CAATCTGAATTCCGGTCTCCC
DNA 2: TGGTGGCTACGACGGGATT
B3: GGAAACA (DNA:RNA)
RNA: B1 RNA with C26G, C27A, U28A, G29A, G31A
DNA 1: CAATCTGAATTCCGGTCTCCC
DNA 2: TGGTGGCTACGACGGGATT
B4: UGCGCAC (DNA:RNA)
RNA: B1 RNA with G25U, C26G, U28G, G29C, C30A, G31C
DNA 1: CAATCTGAATTCCGGTCTCCC
DNA 2: TGGTGGCTACGACGGGATT
B5: CGCCGGC (DNA:RNA)
RNA: B1 RNA with G25C, C26G, U28C, C30G, G31C
DNA 1: CAATCTGAATTCCGGTCTCCC
DNA 2: TGGTGGCTACGACGGGATT
B6: GGCGCUU (DNA:RNA)
RNA: B1 RNA with C26G, U28G, G29C, C30U, G31U
DNA 1: CAATCTGAATTCCGGTCTCCC
DNA 2: TGGTGGCTACGACGGGATT
B7: UAACCUU (DNA:RNA)
RNA: GGGAGACCGGAAUUCAGAUUGUCCUAACCUUUUAAAUCCCGUCGUAGCCACCA
DNA 1: CAATCTGAATTCCGGTCTCCC
DNA 2: TGGTGGCTACGACGGGATT
B8: GCGCUUG (DNA:RNA)
RNA: B1 RNA with C27G, U28C, G29U, C30U
DNA 1: CAATCTGAATTCCGGTCTCCC
DNA 2: TGGTGGCTACGACGGGATT
B9: ACACACG (DNA:RNA)
RNA: B1 RNA with G25A, C27A, U28C, G29A
DNA 1: CAATCTGAATTCCGGTCTCCC
DNA 2: TGGTGGCTACGACGGGATT
B10: UUAGAGA (DNA:RNA)
RNA: B7 RNA with A26U, C28G, C29A, U30G, U31A
DNA 1: CAATCTGAATTCCGGTCTCCC
DNA 2: TGGTGGCTACGACGGGATT
B11: CCCGGUA (DNA:RNA)
RNA: B1 RNA with G25C, U28G, C30U, G31A
DNA 1: CAATCTGAATTCCGGTCTCCC
DNA 2: TGGTGGCTACGACGGGATT
B12: GGGUGAU (DNA:RNA)
RNA: B1 RNA with C26G, C27G, C30A, G31U
DNA 1: CAATCTGAATTCCGGTCTCCC
DNA 2: TGGTGGCTACGACGGGATT
B13: UUGCGCG (DNA:RNA)
RNA: B1 RNA with G25U, C26U, C27G, U28C
DNA 1: CAATCTGAATTCCGGTCTCCC
DNA 2: TGGTGGCTACGACGGGATT
B14: UACCCGC (DNA:RNA)
RNA: B7 RNA with A27C, U30G, U31C
DNA 1: CAATCTGAATTCCGGTCTCCC
DNA 2: TGGTGGCTACGACGGGATT
B15: UUGCGCA (DNA:RNA)
RNA: B1 RNA with G25U, C26U, C27G, U28C, G31A
DNA 1: CAATCTGAATTCCGGTCTCCC
DNA 2: TGGTGGCTACGACGGGATT
B16: GGAAAUG (DNA:RNA)
RNA: B1 RNA with C26G, C27A, U28A, G29A, C30U
DNA 1: CAATCTGAATTCCGGTCTCCC
DNA 2: TGGTGGCTACGACGGGATT
B17: ACGCUUA (DNA:RNA)
RNA: B7 RNA with U25A, A26C, A27G, C29U, U31A
DNA 1: CAATCTGAATTCCGGTCTCCC
DNA 2: TGGTGGCTACGACGGGATT
B18: CUACAAU (DNA:RNA)
RNA: B7 RNA with U25C, A26U, C29A, U30A
DNA 1: CAATCTGAATTCCGGTCTCCC
DNA 2: TGGTGGCTACGACGGGATT
B19: CUUUUGU (DNA:RNA)
RNA: B1 RNA with G25C, C26U, C27U, G29U, C30G, G31U
DNA 1: CAATCTGAATTCCGGTCTCCC
DNA 2: TGGTGGCTACGACGGGATT
B20: UUUGUGA (DNA:RNA)
RNA: B7 RNA with A26U, A27U, C28G, C29U, U30G, U31A
DNA 1: CAATCTGAATTCCGGTCTCCC
DNA 2: TGGTGGCTACGACGGGATT
B21: UGCUUUG (DNA:RNA)
RNA: B1 RNA with G25U, C26G, G29U, C30U
DNA 1: CAATCTGAATTCCGGTCTCCC
DNA 2: TGGTGGCTACGACGGGATT
B22: UCCUCCA (DNA:RNA)
RNA: B1 RNA with G25U, G29C, G31A
DNA 1: CAATCTGAATTCCGGTCTCCC
DNA 2: TGGTGGCTACGACGGGATT
B23: GGGGUCA (DNA:RNA)
RNA: B1 RNA with C26G, C27G, U28G, G29U, G31A
DNA 1: CAATCTGAATTCCGGTCTCCC
DNA 2: TGGTGGCTACGACGGGATT
B24: GUGCACU (DNA:RNA)
RNA: B1 RNA with C26U, C27G, U28C, G29A, G31U
DNA 1: CAATCTGAATTCCGGTCTCCC
DNA 2: TGGTGGCTACGACGGGATT
B25: AAUAGGA (DNA:RNA)
RNA: B1 RNA with G25A, C26A, C27U, U28A, C30G, G31A
DNA 1: CAATCTGAATTCCGGTCTCCC
DNA 2: TGGTGGCTACGACGGGATT
B26: CUUCUCG (DNA:RNA)
RNA: B1 RNA with G25C, C26U, C27U, U28C, G29U
DNA 1: CAATCTGAATTCCGGTCTCCC
DNA 2: TGGTGGCTACGACGGGATT
B27: GUGCCGU (DNA:RNA)
RNA: B7 RNA with U25G, A26U, A27G, U30G
DNA 1: CAATCTGAATTCCGGTCTCCC
DNA 2: TGGTGGCTACGACGGGATT
B28: UCUACCU (DNA:RNA)
RNA: B7 RNA with A26C, A27U, C28A, U30C
DNA 1: CAATCTGAATTCCGGTCTCCC
DNA 2: TGGTGGCTACGACGGGATT
B29: CGCGAGA (DNA:RNA)
RNA: B1 RNA with G25C, C26G, U28G, G29A, C30G, G31A
DNA 1: CAATCTGAATTCCGGTCTCCC
DNA 2: TGGTGGCTACGACGGGATT
B30: AUAACAU (DNA:RNA)
RNA: B7 RNA with U25A, A26U, C28A, U30A
DNA 1: CAATCTGAATTCCGGTCTCCC
DNA 2: TGGTGGCTACGACGGGATT
B31: CGUGGAU (DNA:RNA)
RNA: B1 RNA with G25C, C26G, C27U, U28G, C30A, G31U
DNA 1: CAATCTGAATTCCGGTCTCCC
DNA 2: TGGTGGCTACGACGGGATT

In the experiment the target is T1, RBFOX1 RRM RbFoxmut (Fox-RRM*) (Homo sapiens, UniProt Q9NWB1 109-208, R118D;E147R;N151S;E152T).
T1 sequence: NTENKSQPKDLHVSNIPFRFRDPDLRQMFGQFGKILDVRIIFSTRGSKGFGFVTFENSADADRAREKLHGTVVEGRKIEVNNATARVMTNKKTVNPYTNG
Briefly: EMSA; HiTS-Eq, 1 nM pool, 10 min; buffer printed only for the single-RNA assays: 10 mM Tris pH 7.5, 150 mM NaCl, 3.4 mM EDTA, 0.001% NP-40, 30 C. The following applies: tags: His6 N-terminal (pET28a); label: 5' 32P. In short, it runs like this: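 Relative association constants, normalised to the cognate motif, were derived by comparing read counts of each RNA species with those of the control reaction. The RNA sequenced was the free fraction, separated by 8% native PAGE after a 10 min equilibration in 50 µL of 1 nM 5′-radiolabelled RNA (7 randomized nucleotides) with increasing concentrations of purified wild-type or mutant RbFox RRM.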
B1: the binding signal was 0.172 KA relative to UGCAUGU.
On to B2, for which the binding signal is 0.0862 KA relative to UGCAUGU.
Next, B3: 0.0775 KA relative to UGCAUGU; B4: 0.0807 KA relative to UGCAUGU.
On to B5, for which the binding signal was 0.0729 KA relative to UGCAUGU.
With B6, the binding signal was 0.0641 KA relative to UGCAUGU.
Regarding B7, the binding signal is 0.0688 KA relative to UGCAUGU.
B8: the binding signal is 0.228 KA relative to UGCAUGU.
The value for B9 was 0.108 KA relative to UGCAUGU; that for B10 was 0.0862 KA relative to UGCAUGU; that for B11 was 0.111 KA relative to UGCAUGU.
Next, B12: 0.116 KA relative to UGCAUGU.
Turning to B13, the binding signal was 0.206 KA relative to UGCAUGU.
Take B14: the binding signal was 0.0813 KA relative to UGCAUGU.
The value for B15 was 0.138 KA relative to UGCAUGU; that for B16 was 0.177 KA relative to UGCAUGU.
Next, B17: 0.118 KA relative to UGCAUGU; B18: 0.0289 KA relative to UGCAUGU; B19: 0.145 KA relative to UGCAUGU.
B20: the binding signal is 0.0842 KA relative to UGCAUGU.
The value for B21 was 0.179 KA relative to UGCAUGU; that for B22 was 0.116 KA relative to UGCAUGU; that for B23 was 0.172 KA relative to UGCAUGU.
Take B24: the binding signal is 0.0816 KA relative to UGCAUGU.
Regarding B25, the binding signal is 0.0533 KA relative to UGCAUGU.
The value for B26 was 0.116 KA relative to UGCAUGU; that for B27 was 0.118 KA relative to UGCAUGU; that for B28 was 0.077 KA relative to UGCAUGU.
In the case of B29, the binding signal was 0.0977 KA relative to UGCAUGU.
The value for B30 was 0.0722 KA relative to UGCAUGU.
Turning to B31, the binding signal was 0.114 KA relative to UGCAUGU.
